From PubChem BioAssay (NCI)
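Test compounds were applied to cells in 96-well plates for 48 hours at 5 doses. Abbreviation: GI50, concentration required for 50% inhibition of growth. TGI marks complete inhibition of growth.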

System: NCI-H322M lung
Test: NCI-60 cell line screen, 48 h

Compound: COc1ccc(-c2oc3ncnc(N)c3c2-c2ccc(NC(=O)Nc3cc(C(F)(F)F)ccc3F)cc2)cc1
- GI50: 1.45 µM
- TGI: 9.6 µM

Compound: Cc1cc(-c2nc3ccc(F)cc3s2)ccc1NC(=O)C(N)CCCCN (stereo not given)
- TGI: 18.5 µM

Compound: Cc1ccc(NC(=O)C(=O)C2C(=O)NC(=O)NC2=O)c(C)c1
- TGI: > 100 µM

Compound: CC(=O)OC1CC2C(C)(C)C(=O)C=C[C@]2(C)C2CCC3(C)C(c4ccoc4)C(=O)C4OC43[C@]12C (stereo not given in full)
- TGI: 50.5 µM

Compound: O=C(O)C(Cc1ccccc1)N=Cc1nc(-c2ccccc2)oc1O (stereo not given)
- TGI: > 100 µM

Compound: CC12CP(=O)(O)CC1C2(Cl)Cl (stereo not given)
- TGI: > 100 µM

Compound: COc1ccc2c(c1)C(=O)/C(=C/c1ccc(O)cc1)O2
- GI50: 72.9 µM
- TGI: > 100 µM

Compound: CC1(C)C(CBr)=[N+]([O-])C(C)(C)N1O
- TGI: > 10 µM

Compound: O=C1/C(=C/c2ccc(Cl)cc2)N=C(c2ccccc2)N1c1cc(C(F)(F)F)ccc1Cl
- GI50: 38 µM
- TGI: > 100 µM

Compound: CCSC1=N/C(=C\c2ccco2)C(Nc2ccc(C)cc2)=N1
- TGI: > 100 µM

Compound: C[C@@H](c1ccccc1)N1C[C@@H](c2ccc3c(c2)OCO3)[C@@H]2C(=O)CCC[C@@H]21
- TGI: > 100 µM

Compound: COc1ccc(C2=NN(C(C)=O)c3nc4ccccc4nc3O2)cc1
- TGI: > 100 µM

Compound: COc1ccc2cc(C(=O)N3CCC([C@@H](C)C(=O)NCc4ccc5c(c4)OCO5)CC3)[nH]c2c1
- GI50: > 100 µM
- TGI: > 100 µM

Compound: CC(=O)O[C@H]1CC[C@@]2(C)C(=CC[C@H]3C(CC#N)[C@@](C)(C#N)CCC32)C1 (stereo not given in full)
- TGI: > 100 µM

Compound: Cc1cccc2c(=O)c3c(sc12)c(NCCCN)nc1ccccc13
- GI50: 1.59 µM
- TGI: 3.02 µM

Compound: Cc1c(C)c(S(=O)(=O)N(CCCN)OCCCN)c(C)c2c1OC(C)(C)CC2
- TGI: 30.7 µM

Compound: CCCCCCCC(=O)Nc1nc2[nH]c(CN3CCN(Cc4cccc(I)c4)CC3)c(CN3CCN(Cc4cccc(I)c4)CC3)c2c(=O)[nH]1
- GI50: 0.87 µM
- TGI: 1.88 µM

Compound: [Mn+3].[O-][Cl+3]([O-])([O-])O.[O-]c1ccccc1C=NCCN1CC1.[O-]c1ccccc1C=NCCN1CC1
- GI50: 14.3 µM
- TGI: > 100 µM

Compound: CC(C)(C)c1ccc(NS(=O)(=O)c2ccc(N)cc2)cc1
- TGI: > 100 µM

Compound: Cn1cnc(SC2=CC(=O)C=C3S[C@H]4C[C@@]23c2c(c(O)c3c5c2=NCCC=5C=N3)N4)c1CC(N)C(=O)O (stereo not given in full)
- GI50: 5.24 µM
- TGI: 17.3 µM

Compound: COC(=O)[C@H](Cc1ccccc1)NC(=O)OCC1OC(n2cc(C)c(=O)[nH]c2=O)CC1N=[N+]=[N-] (stereo not given in full)
- TGI: > 100 µM

Compound: Nc1ccc2nc3n(c2c1)C(c1c(F)cccc1F)SC3 (stereo not given)
- TGI: > 100 µM

Compound: Cc1cn(C(CO)OC(CO)CN(O)C2C3CC4CC(C3)CC2C4)c(=O)[nH]c1=O (stereo not given)
- TGI: > 100 µM

Compound: C/C1=C\[C@@H](C)C[C@@H](C)OC(=O)[C@@H](C)NC(=O)[C@H](Cc2ccc(O)c(Br)c2)N(C)C(=O)CNC(=O)[C@H](C)C1
- TGI: > 100 µM

Compound: COc1nc(NC2OC(COC(C)=O)C(OC(C)=O)C(OC(C)=O)C2OC(C)=O)c(N=C(C)C(C)=O)c(=O)n1C (stereo not given)
- TGI: > 100 µM

Compound: COc1ccc2c(c1)/C(=C\c1c(-c3ccccc3)nc3sccn13)C(=O)N2
- GI50: > 100 µM
- TGI: > 100 µM

Compound: CCCCCCCCCCCCCCCCCC1=NC(C)(C)CN1C(C)(C)CO
- GI50: 2.65 µM
- TGI: 7.1 µM

Compound: COc1cc(/C=C2\C[C@H]3[C@@H]4CC=C5C[C@@H](O)CC[C@]5(C)[C@H]4CC[C@]3(C)[C@H]2O)ccc1OCCN1CCCCC1
- GI50: 1.03 µM
- TGI: 2.16 µM

Compound: CCCC[n+]1ccn(-c2nc3ccccc3n2C)c1
- TGI: > 100 µM

Compound: Nc1nncc2n[nH]nc12
- TGI: > 100 µM

Compound: C=CC(=C)CCC(Br)C(C)(C)Br (stereo not given)
- TGI: > 100 µM

Compound: COc1ccc(C/C=C(\C)CCO)cc1
- TGI: > 100 µM

Compound: CC1=C/C(=N\NS(=O)(=O)c2ccc([N+](=O)[O-])cc2)CC(C)(C)C1
- TGI: > 100 µM

Compound: COc1ccc(/C(=N/OCCCC(=O)O)c2cccs2)cc1
- TGI: > 100 µM

Compound: COc1nc2c(c(=O)[nH]1)N=C(c1ccccc1)CC(c1ccccc1)N2 (stereo not given)
- TGI: > 100 µM

Compound: Brc1ccc2nc(-c3cccs3)nc(N3CCN(c4ccccc4)CC3)c2c1
- TGI: > 100 µM

Compound: N#Cc1ccc2[nH]cc(Cc3c[nH]c4ccc(C#N)cc34)c2c1
- GI50: 8.43 µM
- TGI: 21.7 µM

Compound: [N-]=[N+]=C1C(=O)C2CC3CC1CC2C3 (stereo not given)
- TGI: > 100 µM
